Experimental data: a collection of fitness landscapes (doi:10.1016/j.celrep.2020.107928)
Whole data set: some 81,000 sequences, median “one-hybrid fitness for binding NBS DNA” near -0.1, cut for the highest 2% near 0.36. This is one part of the list.

B1: Caulobacter ParB omega fusion; a variant is named by its letters at X, in order, B8GW30 (parent)
chain: MESVVVGEPGMSEGRRGLGRGLSALLGEVDAAPAQAPGEQLGGSREAPIEILQRNPDQPRRTFREEDLEDLSNSIREKGVLQPILVRPSPDTAGEYQIVAGERAWRAAQRAGLKTVPIMVRELDDLAVLEIGIIENVQRADLNVLEEALSYKVLMEKFERTQENIAQTIGKSXSHVANXMRLLXLPDEVQSYLVSGELTAXHARAIAAAADPVALAKQIIEGGLSVRETEALARKAPNLSAGKSKGGRPPRVKDTDTQALESDLSSVLGLDVSIDHRGSTGTLTITYATLEQLDDLCNRLTRGI

Variants of: B1
Assay: one-hybrid fitness for binding NBS DNA (the Noc-binding site; scaled: cognate 1, non-cognate 0); higher = stronger binding
Conditions: with NBS DNA site
Outline: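 The reporter was HIS3, with the binding site 19 bp from the promoter, in E. coli USO used for bacterial one-hybrid selection of Caulobacter ParB libraries with four specificity codons randomised. Growth was on M9 lacking histidine, with 0.1 mM IPTG and 5 mM 3-AT, for 48 hours at 37°C. Illumina sequencing covered plasmids before and after selection; three replicate libraries were pooled and variants with under 10 reads dropped. A fitness score is the log change in variant-to-wild-type read ratio, rescaled to the cognate and non-cognate references.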

Variant	one-hybrid fitness for binding NBS DNA
LVPL	≤ 0.2
AGQR	≤ 0.2
TVSP	≤ 0.2
TDGC	≤ 0.2
QQEE	≤ 0.2
NMWT	≤ 0.2
AICG	≤ 0.2
FLHK	≤ 0.2
AWID	≤ 0.2
RHYG	≤ 0.2
WCKR	≤ 0.2
DTVH	≤ 0.2
PETL	≤ 0.2
SSNT	≤ 0.2
LMQD	≤ 0.2
VALN	≤ 0.2
MPTV	≤ 0.2
ARSC	≤ 0.2
PFCR	≤ 0.2
VHIC	≤ 0.2
GRCR	≤ 0.2
WYIC	≤ 0.2
TSYK	≤ 0.2
QPRD	≤ 0.2

Variant	one-hybrid fitness for binding NBS DNA
TSNN	≤ 0.2
NMFL	≤ 0.2
LVRS	≤ 0.2
EITL	≤ 0.2
RLAL	≤ 0.2
DNQP	≤ 0.2
VKHS	≤ 0.2
ANAA	≤ 0.2
RCCT	0.39
TELK	≤ 0.2
DSGC	≤ 0.2
PYTF	≤ 0.2
SAGC	≤ 0.2
TKLN	≤ 0.2
PAIE	≤ 0.2
GSQV	≤ 0.2
WQVR	≤ 0.2
PYSR	≤ 0.2
AWGD	≤ 0.2
TYSL	≤ 0.2
AAQY	≤ 0.2
EISR	≤ 0.2
NATR	≤ 0.2
CLVA	≤ 0.2

Variant	one-hybrid fitness for binding NBS DNA
TCHG	≤ 0.2
MRLR	≤ 0.2
PWRT	≤ 0.2
PVGI	≤ 0.2
ARLW	≤ 0.2
LLRN	≤ 0.2
FPTQ	≤ 0.2
AQEF	≤ 0.2
WLSC	≤ 0.2
EKAG	≤ 0.2
FNHD	≤ 0.2
PEPF	≤ 0.2
RNSA	≤ 0.2
AGHG	≤ 0.2
DLFV	≤ 0.2
LMPV	≤ 0.2
GIIG	≤ 0.2
SSHI	≤ 0.2
AFEC	≤ 0.2
YTAI	≤ 0.2
LQAM	≤ 0.2
SKHW	≤ 0.2
NEYR	≤ 0.2
RGIK	≤ 0.2

Variant	one-hybrid fitness for binding NBS DNA
CAAG	≤ 0.2
SIPI	≤ 0.2
VNSG	≤ 0.2
QNPM	≤ 0.2
FHTR	≤ 0.2
TYYQ	≤ 0.2
PLLT	≤ 0.2
RLWP	≤ 0.2
MIPS	≤ 0.2
VKNA	≤ 0.2
STHA	≤ 0.2
SMYG	≤ 0.2
RMMN	≤ 0.2
RASC	≤ 0.2
VRVK	≤ 0.2
LRHL	≤ 0.2
YRSC	≤ 0.2
IPYR	≤ 0.2
EMTG	≤ 0.2
SWKM	≤ 0.2
NRQS	≤ 0.2
HTHR	≤ 0.2
QHMS	0.31
IYKR	0.241

Variant	one-hybrid fitness for binding NBS DNA
MISM	≤ 0.2
GFFV	≤ 0.2
EMAR	≤ 0.2
QMCA	≤ 0.2
FSAR	≤ 0.2
WNVT	≤ 0.2
HFVG	≤ 0.2
GLPY	≤ 0.2
RELL	≤ 0.2
DPSV	≤ 0.2
KPKT	≤ 0.2
TVGG	≤ 0.2
ECIS	≤ 0.2
PAWN	≤ 0.2
QHMH	≤ 0.2
YLYG	≤ 0.2
SCSP	≤ 0.2
RSVI	≤ 0.2
INNS	≤ 0.2
NNMI	≤ 0.2
LTIC	≤ 0.2
QRQI	0.291
CLPS	≤ 0.2
TVMT	≤ 0.2

Variant	one-hybrid fitness for binding NBS DNA
ESFR	≤ 0.2
RMQM	≤ 0.2
LISW	≤ 0.2
RVDT	≤ 0.2
CTPG	≤ 0.2
HEKY	≤ 0.2
GVTL	≤ 0.2
KLLK	≤ 0.2
NVGT	≤ 0.2
ARVD	≤ 0.2
IEMT	≤ 0.2
EQTS	≤ 0.2
HNYE	≤ 0.2
KMRH	≤ 0.2
RIRD	≤ 0.2
LPAM	≤ 0.2
GQMR	≤ 0.2
ANCT	≤ 0.2
TQCS	≤ 0.2
RGDE	≤ 0.2
QEPE	≤ 0.2
IWNF	≤ 0.2
YSCA	≤ 0.2
RYNP	≤ 0.2

Variant	one-hybrid fitness for binding NBS DNA
RSYE	≤ 0.2
TTTS	≤ 0.2
DGSV	≤ 0.2
RHIR	≤ 0.2
TAHE	≤ 0.2
ENIF	≤ 0.2
GEAR	≤ 0.2
MRNV	≤ 0.2
VYHS	≤ 0.2
INIP	≤ 0.2
SATS	≤ 0.2
WIRT	≤ 0.2
NPSY	≤ 0.2
WSPS	≤ 0.2
FPRL	≤ 0.2
TGDG	≤ 0.2
GNYG	≤ 0.2
WHNC	≤ 0.2
SKMR	≤ 0.2
TLDV	≤ 0.2
YRYT	≤ 0.2
WMGS	≤ 0.2
QGLW	≤ 0.2
TEEF	≤ 0.2

Variant	one-hybrid fitness for binding NBS DNA
YPSG	≤ 0.2
LGLS	≤ 0.2
IVQS	≤ 0.2
GALS	≤ 0.2
RNKY	≤ 0.2
TYEC	≤ 0.2
AWTS	≤ 0.2
HYHD	≤ 0.2
MPMR	≤ 0.2
LAGA	≤ 0.2
ERLS	≤ 0.2
NPMC	≤ 0.2
HFSV	≤ 0.2
CVTN	≤ 0.2
RTVV	≤ 0.2
HSSY	≤ 0.2
VRGF	≤ 0.2
AIKL	≤ 0.2
FPNF	≤ 0.2
HIPS	≤ 0.2
NLNK	≤ 0.2
FVRC	≤ 0.2
NCNS	≤ 0.2
HYHY	≤ 0.2

Variant	one-hybrid fitness for binding NBS DNA
PWRD	≤ 0.2
NFCN	≤ 0.2
RRNH	0.63
DVAF	≤ 0.2
LQEQ	≤ 0.2
KRFT	0.565
VNKT	≤ 0.2
AMFS	≤ 0.2
GEND	≤ 0.2
HHDA	≤ 0.2
RVLA	≤ 0.2
ICSG	≤ 0.2
HQMY	≤ 0.2
CARV	≤ 0.2
YAHR	≤ 0.2
GKMV	≤ 0.2
QNGR	≤ 0.2
CILS	≤ 0.2
QDVV	≤ 0.2
PPDG	≤ 0.2
YTHG	≤ 0.2
TTQI	≤ 0.2
RILL	≤ 0.2
IRKM	≤ 0.2

Variant	one-hybrid fitness for binding NBS DNA
GWPT	≤ 0.2
KPNH	≤ 0.2
AECT	≤ 0.2
LYDT	≤ 0.2
NGWW	≤ 0.2
SGNV	≤ 0.2
RHLM	≤ 0.2
LTES	≤ 0.2
PDNR	≤ 0.2
YATR	≤ 0.2
PSSD	≤ 0.2
ACGT	≤ 0.2
ALVG	≤ 0.2
AVIC	≤ 0.2
TQES	≤ 0.2
QETT	≤ 0.2
PWGP	≤ 0.2
RCQV	≤ 0.2
TPHN	≤ 0.2
KAQV	≤ 0.2
LTPM	≤ 0.2
RAII	≤ 0.2
LSFN	≤ 0.2
CHRA	≤ 0.2

Variant	one-hybrid fitness for binding NBS DNA
SQMR	≤ 0.2
PKQM	≤ 0.2
QTQN	≤ 0.2
AKNT	≤ 0.2
VGTL	≤ 0.2
DPIR	≤ 0.2
NQMR	≤ 0.2
HFYR	≤ 0.2
PRLE	≤ 0.2
FSYV	≤ 0.2
KWLT	≤ 0.2
SQGS	≤ 0.2
WVVG	≤ 0.2
GTAE	≤ 0.2
ITCD	≤ 0.2
NCCS	≤ 0.2
RMVV	≤ 0.2
ELVG	≤ 0.2
KLKQ	≤ 0.2
QHAP	≤ 0.2
INKS	≤ 0.2
SRAN	≤ 0.2
AKFS	≤ 0.2
LFDP	≤ 0.2

Variant	one-hybrid fitness for binding NBS DNA
RFRG	≤ 0.2
NTNC	≤ 0.2
STKP	≤ 0.2
FRGV	≤ 0.2
KNMR	≤ 0.2
QTWQ	≤ 0.2
YKNG	≤ 0.2
FSLL	≤ 0.2
DDQG	≤ 0.2
SMDE	≤ 0.2
PQHI	≤ 0.2
TANS	≤ 0.2
MVAN	≤ 0.2
LIVR	≤ 0.2
ANYV	≤ 0.2
SHQF	≤ 0.2
ANTI	≤ 0.2
QGTW	≤ 0.2
QHCE	≤ 0.2
DCGC	≤ 0.2
QNHI	≤ 0.2
TCFT	≤ 0.2
CHLV	≤ 0.2
NGQY	≤ 0.2

Variant	one-hybrid fitness for binding NBS DNA
PTIN	≤ 0.2
LMLE	≤ 0.2
VSGC	≤ 0.2
PWED	≤ 0.2
VVRC	≤ 0.2
RDWC	≤ 0.2
NLLR	≤ 0.2
QMAY	≤ 0.2
GGNQ	≤ 0.2
VAAA	≤ 0.2
DNER	≤ 0.2
PDAT	≤ 0.2
AYSL	≤ 0.2
PMYY	≤ 0.2
GQHS	≤ 0.2
LLNR	≤ 0.2
PDSC	≤ 0.2
ASRS	≤ 0.2
